# Laboratory results from PubChem BioAssay AID1468 (National Center for Advancing Translational Sciences (NCATS), 2008).
# Values joined by “and” are separate entries in the source; they are usually repeats but may differ in a detail not shown here. Equal entries are not always repeated. About 1,100 (0.39%) of roughly 280,000 compounds were called active. Inconclusive results, whose numbers are uncertain, are shown with a selection of clear calls. The call rests on the fitted dose curve; in most records, active means well fitted inhibition curve with a large enough effect; inconclusive means small, poorly fitted or top-dose-only effect, or effect the other way; inactive means flat fitted curve, though single readings scatter. Where the call is inconclusive, the potency comes from a doubtful curve fit.
# Molecular target: Microtubule-associated protein tau (Homo sapiens) (UniProt P10636)
# Assay: qHTS for Inhibitors of Tau Fibril Formation, Fluorescence Polarization; further: nearly all actives have a fitted effect of over 55% in size
# Details: K18 P301L tau heparin fibrillization, Alexa594 FP, 6 h; series mostly up to 57.7 µM; activity, negative = inhibition: at the top concentration
# Procedure, shortened: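 FP of Alexa 594-tau after heparin (20 uM) induction. Substrate: human K18 P301L, 15 uM unlabeled, 0.24 uM labeled. Buffer 100 mM sodium acetate pH 7. 6 hr, 37 C.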
# On the % scale 0 is the no-effect control and ±100 the full control effect; potency means the concentration at half of the fitted maximal effect; tags describe the fitted curve by direction and shape.
# Sequence of UniProt P10636 (P10636 whole entry, looked up): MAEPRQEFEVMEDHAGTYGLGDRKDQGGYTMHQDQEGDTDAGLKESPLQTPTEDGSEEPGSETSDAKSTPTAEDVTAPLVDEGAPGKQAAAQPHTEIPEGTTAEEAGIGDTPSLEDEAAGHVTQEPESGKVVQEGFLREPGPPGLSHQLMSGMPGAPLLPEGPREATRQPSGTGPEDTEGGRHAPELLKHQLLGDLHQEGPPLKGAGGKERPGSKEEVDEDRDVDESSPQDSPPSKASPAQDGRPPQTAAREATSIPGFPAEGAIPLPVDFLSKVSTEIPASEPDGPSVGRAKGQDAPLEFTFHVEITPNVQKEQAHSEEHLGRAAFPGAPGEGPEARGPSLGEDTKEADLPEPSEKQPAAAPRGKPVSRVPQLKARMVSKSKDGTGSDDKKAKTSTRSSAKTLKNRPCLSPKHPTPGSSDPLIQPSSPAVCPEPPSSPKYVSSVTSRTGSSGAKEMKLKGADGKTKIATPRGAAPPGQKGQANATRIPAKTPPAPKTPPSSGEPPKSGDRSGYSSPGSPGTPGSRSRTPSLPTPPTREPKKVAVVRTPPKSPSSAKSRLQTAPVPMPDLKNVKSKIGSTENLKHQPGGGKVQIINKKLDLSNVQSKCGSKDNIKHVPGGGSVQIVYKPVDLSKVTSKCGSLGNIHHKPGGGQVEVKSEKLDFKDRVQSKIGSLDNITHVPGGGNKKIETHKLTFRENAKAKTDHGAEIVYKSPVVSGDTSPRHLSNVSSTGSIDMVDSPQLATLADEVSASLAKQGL
SMILES,Potency,"activity, negative = inhibition"
O=C1COc2ccc(C(=O)COC(=O)c3sc4ccccc4c3Cl)cc2N1,"inconclusive: 25.1 µM [inhibitor, partial curve]",–
CCOc1cccc(-c2cc(=O)[nH][nH]2)c1,"inconclusive: 3.55 µM [inhibitor, full curve]",–
COc1ccc(NC(=O)C(NC(=O)/C=C\c2ccc3c(c2)OCO3)c2ccc(OC)cc2)cc1 (stereo not drawn),"inconclusive: 25.1 µM [inhibitor, partial curve, poor fit]",–
O=C(Nc1cc(Cl)ccc1Cl)c1cc(S(=O)(=O)N2CCCc3ccccc32)ccc1F,–,inactive: -15%
O=C(NCCc1c[nH]c2ccccc12)c1ccc([N+](=O)[O-])cc1,"inconclusive: 14.1 µM [activator, partial curve, poor fit]",–
Cc1cc(C)cc(NC(=S)N=Nc2c(O)n(C)c3ccc(S(=O)(=O)N4CCOCC4)cc23)c1,"inconclusive: 7.94 µM [activator, partial curve]",–
CCOC(=O)c1sc(N/N=C/c2cccc(C)c2)nc1C,"inconclusive: 7.94 µM [activator, single point]",–
CC(C)N1CC=C2C(C#N)=C(N)C(C#N)(C#N)C(c3ccccc3)C2C1 (stereo not drawn),"inconclusive: 39.8 µM [inhibitor, single point]",–
COc1ccc2c(Sc3ccccc3)c(C(=O)N3CCC(C)CC3)[nH]c2c1,"inconclusive: 39.8 µM [inhibitor, single point]",–
O=C(CSc1nnnn1Cc1ccccc1)Nc1ccc2c(c1)OCO2,–,inactive: -1.8%
O=C(CSc1nc2ncc(Br)cc2[nH]1)c1ccc([N+](=O)[O-])cc1,"inconclusive: 44.7 µM [inhibitor, single point]",–
Cc1ccc([N+](=O)[O-])c(Oc2ncnc3c2oc2ccccc23)c1,"inconclusive: 44.7 µM [inhibitor, single point]",–
O=C(Cc1cc(=O)[nH][nH]1)N/N=C/C(Cl)=C/c1ccccc1,"inconclusive: 5.01 µM [inhibitor, partial curve, poor fit] and inconclusive: 3.16 µM [inhibitor, full curve]",–
OC(COc1ccc2ccccc2c1Br)Cn1cnc(-c2ccccc2)c1 (stereo not drawn),"inconclusive: 15.8 µM [inhibitor, partial curve]",–
CCOC(=O)c1c(C)[nH]c(C(=O)N2CCN(c3ccc(OC)cc3)CC2)c1C,–,inactive: -1.25%
CCc1ccc(-c2cn3nc(C)c(C)nc3n2)cc1,"inconclusive: 2 µM [inhibitor, partial curve]",–
Cc1ccc2c(=O)cc(C(=O)Nc3c(C(=O)c4ccccc4)oc4ccccc34)oc2c1,"inconclusive: 44.7 µM [inhibitor, single point]",–
CCOc1ccc(N=C/C=C/c2ccccc2)c(O)c1,"inconclusive: 20 µM [inhibitor, partial curve]",–
COC(=O)c1c(-c2cccs2)csc1NC(=O)COc1ccccc1,"inconclusive: 25.1 µM [inhibitor, partial curve]",–
Cc1cc(C)n2nc(SCc3nnc(-c4ccc(F)cc4)o3)nc2n1,–,inactive: -1.17%
COC(=O)c1c(-c2cccs2)csc1NC(=O)c1ccc(C(C)(C)C)cc1,active: 22.4 µM,–

SMILES,Potency,"activity, negative = inhibition"
CSc1ccc(C2c3[nH]c4ccccc4c3CCN2C(=O)CCC2CCCC2)cc1 (stereo not drawn),–,inactive: -0.762%
CCC1=NN2C(=N)/C(=C\c3cccn3-c3ccc(Br)cc3)C(=O)N=C2S1,–,inactive: -3.88%
CCN(CC)S(=O)(=O)c1ccc(OC)c(NC(=S)Nc2cccc(C)c2)c1,"inconclusive: 25.1 µM [inhibitor, partial curve, poor fit]",–
O=C(CCl)Nc1ccc(N=Nc2ccccc2)cc1,–,inactive: -14.9%
Cc1cccc2cc(C3CC(c4cccs4)=NN3S(C)(=O)=O)c(Cl)nc12 (stereo not drawn),"inconclusive: 10 µM [inhibitor, partial curve]",–
CO[C@@]12[C@@H](COC(N)=O)C3=C(C(=O)C(C)=C(N)C3=O)N1C[C@@H]1N[C@@H]12,"inconclusive: 35.5 µM [inhibitor, partial curve]",–
COc1ccc(/C=N/NC(=O)c2ccccc2)cc1OS(=O)(=O)c1ccccc1,"inconclusive: 22.4 µM [inhibitor, partial curve]",–
COc1ccc(CC(=O)NNC2=Nc3cccc4cccc2c34)cc1OC,"inconclusive: 44.7 µM [inhibitor, single point]",–
COc1ccc2cc(C(c3nnnn3C3CCCC3)N3CCc4ccccc4C3)c(=O)[nH]c2c1 (stereo not drawn),"inconclusive: 39.8 µM [inhibitor, single point]",–
CC(C)N=c1scc(-c2ccco2)n1/N=C/c1ccc(O)c(O)c1,"inconclusive: 2.82 µM [activator, partial curve]",–
CC(=O)NC(c1ccc([N+](=O)[O-])cc1)c1c(O)ccc2ccccc12 (stereo not drawn),–,inactive: 0.557%
O=C(CN(c1cccc(C(F)(F)F)c1)S(=O)(=O)c1ccccc1)Nc1cccc(Cl)c1,"inconclusive: 12.6 µM [inhibitor, partial curve]",–
Cn1c(SCc2nnc(-c3ccccc3)o2)nc2ccccc21,–,inactive: -1.65%
CC1=C(C#N)c2nc(N)c(C#N)c(C)c2/C1=C\c1ccc(OCC(=O)O)c(Cl)c1,"inconclusive: 31.6 µM [inhibitor, partial curve]",–
CC(=O)Nc1ccc(NC(=O)c2nc(SCc3ccccc3C)ncc2Cl)cc1,"inconclusive: 25.1 µM [inhibitor, partial curve]",–
COc1cccc(Nc2nc3cc(OC)ccc3cc2C#N)c1,"inconclusive: 11.2 µM [inhibitor, partial curve, poor fit]",–
N#CC(C(=O)c1ccc(S(=O)(=O)N2CCCCCC2)cc1)c1nc2ccccc2[nH]1 (stereo not drawn),"inconclusive: 25.1 µM [inhibitor, single point]",–
O=C(Nc1cccc(Br)c1)c1ccc(CSc2ccccc2)cc1,"inconclusive: 20 µM [inhibitor, single point]",–
CCOC(=O)N1C2=NC(C(=O)OC)=C(C(=O)OC)[C@@H]3Nc4ccccc4[C@]23C[C@H]1C(=O)OC,"inconclusive: 1.58 µM [inhibitor, single point]",–
COc1ccc(CCn2c(N)c(S(=O)(=O)c3cccs3)c3nc4ccccc4nc32)cc1OC,"inconclusive: 7.94 µM [inhibitor, full curve]",–
Cc1ccccc1C(=O)Nc1nc(=S)ss1,"inconclusive: 35.5 µM [inhibitor, single point]",–

SMILES,Potency,"activity, negative = inhibition"
S=C(c1ccc(-c2ccc(Cl)cc2Cl)o1)N1CCCC1,–,inactive: -3.96%
C/C=C\C=C/C(=O)Nc1cccc(C2=NOC3(C2)C[C@@H](C(N)=O)N(C(=O)/C=C/C=C\C)C3)c1 (stereo partly drawn),"inconclusive: 25.1 µM [inhibitor, partial curve]",–
O=c1c(C(c2ccccc2)c2c(O)nc3n(c2=O)CCS3)c(O)nc2n1CCS2,"inconclusive: 12.6 µM [inhibitor, partial curve]",–
Cc1ccc(NC(=O)c2ccc3c(c2)NC(=O)c2ccccc2S3)cc1,"inconclusive: 35.5 µM [inhibitor, single point]",–
N#CC1=C(N)C(C#N)(C#N)C(c2ccncc2)C2CN(C(=O)OCc3ccccc3)CC=C12 (stereo not drawn),"inconclusive: 25.1 µM [inhibitor, partial curve]",–
CCN=C1SC(CC(=O)NC(N)=O)C(=O)N1CC (stereo not drawn),"inconclusive: 15.8 µM [inhibitor, single point]",–
O=C(Nc1cccc(Cl)c1)c1cc(S(=O)(=O)N2CCCc3ccccc32)ccc1F,"inconclusive: 17.8 µM [inhibitor, partial curve, poor fit]",–
Cc1cc(O)cc(O)c1C=NCc1ccco1,–,inactive: -14.1%
COc1cc([C@@H]2c3cc4c(cc3[C@@H](O)[C@H]3COC(=O)[C@H]23)OCO4)cc(OC)c1O[Si](C)(C)C(C)(C)C,"inconclusive: 17.8 µM [inhibitor, partial curve, poor fit]",–
Cc1ccc(NC(=O)COC(=O)c2ccc(Cl)cc2)cc1S(=O)(=O)N(C)C,"inconclusive: 14.1 µM [inhibitor, partial curve]",–
COc1cc(C)ccc1OCCSc1nc2ccc(NC(=O)c3cccs3)cc2s1,active: 10 µM,–
COC1=C(Nc2ccccc2OC)C(=O)c2ccccc2C1=O,"inconclusive: 20 µM [inhibitor, single point]",–
CNC(=S)N1N=C(c2ccc(OC)cc2)CC1c1ccc(Cl)cc1Cl (stereo not drawn),"inconclusive: 31.6 µM [inhibitor, single point]",–
Cc1ccc(-n2c(COc3c(C)cccc3C)nnc2SCC(=O)Nc2nccs2)cc1,"inconclusive: 39.8 µM [inhibitor, single point]",–
CCc1ccccc1NC(=O)c1cccc(NC(=O)/C=C/c2ccco2)c1,"inconclusive: 12.6 µM [inhibitor, partial curve]",–
N=c1c2cn[nH]c2nc(SCC(=O)c2ccc(Br)cc2)n1-c1ccc(Br)cc1,"inconclusive: 10 µM [inhibitor, partial curve]",–
CCc1ccc(C(=O)CSc2nc(-c3ccccc3)nc3c2CCCC3)cc1,–,inactive: -0.705%
COC(=O)c1cccc(NC(=S)Nc2cccc(Cl)c2C)c1,"inconclusive: 3.16 µM [activator, single point]",–
C/C(N)=C(/C#N)C(=O)COC(=O)c1cc(-c2ccccc2)nc2ccc(Br)cc12,"inconclusive: 10 µM [inhibitor, partial curve]",–
Cc1ccc(Nc2ccc(S(=O)(=O)N3CCOCC3)cc2[N+](=O)[O-])cc1C,"inconclusive: 0.355 µM [activator, full curve, poor fit]",–
CC(C)(C)c1ccc(O)c(/C=N\O)c1,"inconclusive: 39.8 µM [inhibitor, single point]",–
